In US20200079850A1 (SUTRO BIOPHARMA, published 2020):

Legend:
[1] = molecular target: T1, human PD-1 expressed on the surface of CHO cells (human, UniProt Q15116 25-288); assay: flow cytometry, CHO-PD1 cells
T1 construct: I took it as human PD-1; also called CHO-PD1
Method: (§1) CHO-k cells stably expressing PD-1 or LAG3 (human or cynomolgus) on the cell surface were used to assess binding affinity of anti-PD-1/LAG3 bispecific antibody constructs. Cells were seeded at 100,000 cells/well in 100 μL of FACS buffer (1×PBS, 0.5% BSA, 0.1% sodium azide) in 96-well polypropylene plates. The cells were centrifuged at 1.5K rpm and resuspended with test antibodies diluted in FACS buffer and incubated on ice for 1 hour. The cells were washed twice with FACS buffer and incubated on ice for 30 mins with R-Phycoerythrin-AffiniPure F(ab′)2 Fragment Goat Anti-Human IgG (H+L) secondary detection antibody (1:200 dilution, Jackson ImmunoResearch Laboratories, West Grove, Pa.). The cells were washed twice with FACS buffer, fixed in 4% paraformaldehyde in PBS (Santa Cruz Biotechnology; Dallas, Tex.) for 20 mins on ice in the dark, washed twice with FACS buffer, and analyzed using the BD LSR II Flow Cytometer (BD Biosciences; San Jose, Calif.). Data were analyzed using FlowJo (FlowJo, LLC; Ashland, Oreg.) to determine mean fluorescence intensities. Binding constants were calculated using the statistical software, GraphPad Prism (GraphPad Software; La Jolla, Calif.) using the nonlinear regression equation, one site—specific binding with Hill slope. The secondary antibody by itself was used as a control.

[2] = molecular target: LAG3 (residues 1-477) C-terminally fused to the beta-galactosidase ProLink (PK) fragment, on U2OS cells (human); assay: cell-based or functional assay
[3] = molecular target: PD-1 (residues 1-199) C-terminally fused to the beta-galactosidase enzyme acceptor (EA) fragment, on U2OS … (human, UniProt Q15116 partial chain); assay: cell-based or functional assay
[4] = molecular target: T2, human LAG3 expressed on the cell surface (CHO-LAG3, 293T-LAG3 cells) (human, UniProt P18627 23-525); assay: flow cytometry, CHO-LAG3 cells
T2 construct: Stably transfected CHO or HEK293T cells; also called Human LAG3 (CHO); Human LAG3 (293T)
T2 sequence: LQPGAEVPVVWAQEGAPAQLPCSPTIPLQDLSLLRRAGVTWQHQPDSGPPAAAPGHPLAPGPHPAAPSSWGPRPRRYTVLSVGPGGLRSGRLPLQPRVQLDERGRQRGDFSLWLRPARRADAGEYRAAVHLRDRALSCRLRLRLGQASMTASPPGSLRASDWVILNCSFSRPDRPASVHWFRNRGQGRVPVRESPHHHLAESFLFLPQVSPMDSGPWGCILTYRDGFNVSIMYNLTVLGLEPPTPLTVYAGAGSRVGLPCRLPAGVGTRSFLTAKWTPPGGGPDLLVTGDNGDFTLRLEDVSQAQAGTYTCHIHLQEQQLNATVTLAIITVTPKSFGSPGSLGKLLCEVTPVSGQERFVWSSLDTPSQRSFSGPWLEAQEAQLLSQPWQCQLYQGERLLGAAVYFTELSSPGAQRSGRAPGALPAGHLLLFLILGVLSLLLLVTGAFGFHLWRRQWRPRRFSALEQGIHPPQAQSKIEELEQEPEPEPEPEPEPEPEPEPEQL

[5] = molecular target: T2, human LAG3 expressed on the cell …; assay: flow cytometry cell binding on CHO cells expressing human LAG3; PE anti-human IgG detection; one site-specific binding with Hill slope fit
Method: as §1

T1 sequence (Q15116 25-288 limits assumed): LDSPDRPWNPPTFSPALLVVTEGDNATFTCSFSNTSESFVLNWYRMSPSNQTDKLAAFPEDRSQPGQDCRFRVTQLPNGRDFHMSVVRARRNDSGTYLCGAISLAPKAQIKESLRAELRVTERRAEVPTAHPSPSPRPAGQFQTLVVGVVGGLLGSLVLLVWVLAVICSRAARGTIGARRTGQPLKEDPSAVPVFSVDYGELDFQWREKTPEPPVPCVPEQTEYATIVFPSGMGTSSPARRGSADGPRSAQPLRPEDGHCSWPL

Kd [1]: 3.7 nM
EC50 of beta-galactosidase enzyme-fragment complementation (RLU) on U2OS cells co-expressing PD-1-EA and LAG3-PK; PD-1/LAG3 cell bridging, needs both targets [2]: 0.14 nM
EC50 of beta-galactosidase enzyme-fragment complementation (RLU) on U2OS cells co-expressing PD-1-EA and LAG3-PK; PD-1/LAG3 cell bridging, needs both targets [3]: 0.14 nM
Kd [4]: 3 nM
Bmax [5]: 1040 MFI
Kd [5]: 0.5 nM
B1: PD-1/LAG3 Bi-specific Construct A: aPD1 1353-G10 scFv_zwB × aLAG3 Fab_zwA (bispecific antibody, human IgG1, kappa)
scFv: MEVQLVQSGAEVKKPGASVKVSCKASGYRFPHYGISWVRQAPGQGLEWMGWISAYNGNTNYAQKLQGRVTMTTDTSTNTAYMELRSLRSDDTAVYYCARDVDYGTGSGYWGQGTLVTVSSGGGGSGGGGSGGGGSSYELTQPPSVSVSPGQTARITCSGDALPKQYAYWYQQKPGQAPVMVIYKDTERPSGIPERFSGSSSGTKVTLTISGVQAEDEADYYCQSADNSITYRVFGGGTKVTVLAAGSDQ[no letters for human IgG1 Fc with changes]
heavy: MQVQLVESGGGVVQPGRSLRLSCAASGFTFSSYGMHWVRQAPGKGLEWVAVIWYDGSYKYYADSVKGRFTISRDNSKNTLYLQMNSLRAEDTAVYYCAREEAPENWDYALDVWGQGTTVTVSSASTKGPSVFPLAPSSKSTSGGTAALGCLVKDYFPEPVTVSWNSGALTSGVHTFPAVLQSSGLYSLSSVVTVPSSSLGTQTYICNVNHKPSNTKVDKKVEPKSCDKTHTCPPCPAPELLGGPSVFLFPPKPKDTLMISRTPEVTCVVVDVSHEDPEVKFNWYVDGVEVHNAKTKPREEQYNSTYRVVSVLTVLHQDWLNGKEYKCKVSNKALPAPIEKTISKAKGQPREPQVYVYPPSREEMTKNQVSLTCLVKGFYPSDIAVEWESNGQPENNYKTTPPVLDSDGSFALVSKLTVDKSRWQQGNVFSCSVMHEALHNHYTQKSLSLSPGK
light: [no letters for about 100 residues][no letters for about 120 residues]
notes: also called 1449-G09.2-Fab-zwA
